The supplement of paper PMC4967469
pIC50: −log10 of the molar value. IC50 is the fitted dose that halves viability relative to control wells, and lower means more sensitive; where the fit passes the top or lowest dose, that dose stands as a limit. For AUC the same curve is integrated over the 256-fold range of doses and scaled to a fraction; the more sensitive the line, the further below 1. For some assays here: A top dose marked as inferred was calculated from the reported fits.

How the values were obtained:
Assay in all cases: Viability of human cancer cell lines after 72 h of drug (GDSC screen)
Dimethyloxalylglycine = compound: COC(=O)CNC(=O)C(=O)OC [Dimethyloxalylglycine]; conditions: top dose 4000 µM; top dose inferred
Method: (§1)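 Human cancer cell lines in 384-well plates, medium with 10% serum, drug for 72 h over a 256-fold dose range (nine 2-fold or five 4-fold steps up to the top dose). Adherent lines were fixed and stained with the nucleic acid dye Syto60, suspension lines read with resazurin; signal relative to control wells, capped at 0 and 100%. One two-parameter sigmoid per drug and line, fitted in a mixed model over all curves with the slope shared within a line.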

Doxorubicin = compound: COc1cccc2c1C(=O)c1c(O)c3c(c(O)c1C2=O)C[C@@](O)(C(=O)CO)C[C@@H]3O[C@H]1C[C@H](N)[C@H](O)[C@H](C)O1 [Doxorubicin]; conditions: top dose 1.024 µM
Method: as §1

CCT018159 = compound: CCc1cc(-c2n[nH]c(C)c2-c2ccc3c(c2)OCCO3)c(O)cc1O [CCT018159]; conditions: top dose 10 µM; top dose inferred
Method: as §1

TG101348 = compound: Cc1cnc(Nc2ccc(OCCN3CCCC3)cc2)nc1Nc1cccc(S(=O)(=O)NC(C)(C)C)c1 [TG101348]; conditions: top dose 10.24 µM
Method: as §1

BIX02189 = compound: CN(C)Cc1cccc(N=C(c2ccccc2)c2c(O)[nH]c3cc(C(=O)N(C)C)ccc23)c1 [BIX02189]; conditions: top dose 20 µM; top dose inferred
Method: as §1

VX-11e = compound: Cc1cnc(Nc2ccc(F)cc2Cl)nc1-c1c[nH]c(C(=O)N[C@H](CO)c2cccc(Cl)c2)c1 [VX-11e]; conditions: top dose 5.12 µM; top dose inferred
Method: as §1

OSI-027 = compound: COc1cccc2cc(-c3nc([C@H]4CC[C@H](C(=O)O)CC4)n4ncnc(N)c34)[nH]c12 [OSI-027]; conditions: top dose 20 µM
Method: as §1

Vismodegib = compound: CS(=O)(=O)c1ccc(C(=O)Nc2ccc(Cl)c(-c3ccccn3)c2)c(Cl)c1 [Vismodegib]; conditions: top dose 10 µM; top dose inferred
Method: as §1

UNC1215 = compound: O=C(c1ccc(C(=O)N2CCC(N3CCCC3)CC2)c(Nc2ccccc2)c1)N1CCC(N2CCCC2)CC1 [UNC1215]; conditions: top dose 1 µM; top dose inferred
Method: as §1

Row | Cell Line | AUC (Dimethyloxalylglycine) | pIC50 (Dimethyloxalylglycine) | AUC (Doxorubicin) | pIC50 (Doxorubicin) | AUC (CCT018159) | pIC50 (CCT018159) | AUC (TG101348) | pIC50 (TG101348) | AUC (BIX02189) | pIC50 (BIX02189) | AUC (VX-11e) | pIC50 (VX-11e) | AUC (OSI-027) | pIC50 (OSI-027) | AUC (Vismodegib) | pIC50 (Vismodegib) | AUC (UNC1215) | pIC50 (UNC1215)
1 | A2058 (melanoma, adherent) | 0.42 | 3.81 | 0.31 | 7.70 | 0.826 | 5.29 | 0.9 | < 4.99 | 0.99 | < 4.70 | 0.983 | < 5.29 | 0.638 | 5.54 | 0.982 | < 5.00 | – | –
2 | AN3-CA (endometrium, adherent) | 0.469 | 3.69 | 0.479 | 7.25 | 0.878 | < 5.00 | 0.955 | < 4.99 | 0.975 | < 4.70 | 0.97 | < 5.29 | 0.399 | 6.19 | 0.926 | < 5.00 | 0.983 | < 6.00
3 | HMV-II (melanoma, adherent) | – | – | 0.297 | 7.83 | 0.928 | < 5.00 | 0.915 | < 4.99 | 0.944 | < 4.70 | 0.64 | 6.07 | 0.8 | 4.91 | 0.981 | < 5.00 | 0.98 | < 6.00
4 | HPAF-II (pancreas, adherent) | 0.69 | 3.00 | 0.786 | 6.23 | 0.846 | < 5.00 | 0.897 | < 4.99 | 0.939 | < 4.70 | 0.687 | 5.90 | 0.37 | 6.31 | – | – | 0.978 | < 6.00
5 | HSC-3 (head and neck, adherent) | 0.657 | 3.20 | 0.49 | 7.22 | 0.893 | 5.05 | 0.962 | < 4.99 | 0.989 | < 4.70 | 0.988 | < 5.29 | 0.865 | 4.87 | – | – | 0.987 | < 6.00
6 | HTC-C3 (thyroid, adherent) | 0.429 | 3.81 | 0.763 | 6.38 | 0.937 | < 5.00 | 0.789 | 5.29 | 0.854 | 4.72 | 0.783 | 5.61 | 0.161 | 7.02 | – | – | 0.982 | < 6.00
7 | J82 (bladder, adherent) | 0.325 | 4.09 | 0.356 | 7.59 | 0.925 | < 5.00 | 0.977 | < 4.99 | 0.97 | < 4.70 | 0.988 | < 5.29 | 0.662 | 5.45 | – | – | 0.987 | < 6.00
8 | KALS-1 (glioma, adherent) | 0.64 | 3.15 | 0.399 | 7.52 | 0.833 | < 5.00 | 0.895 | < 4.99 | 0.934 | < 4.70 | 0.893 | < 5.29 | 0.504 | 5.89 | – | – | 0.975 | < 6.00
9 | KMS-12-BM (myeloma, suspension) | 0.414 | 3.82 | 0.771 | 6.49 | 0.954 | < 5.00 | 0.405 | 6.43 | 0.92 | < 4.70 | 0.971 | < 5.29 | 0.158 | 6.83 | 0.951 | < 5.00 | – | –
10 | KOSC-2 (head and neck, adherent) | 0.914 | < 2.40 | 0.685 | 6.66 | 0.869 | 5.00 | 0.751 | 5.45 | 0.982 | < 4.70 | 0.975 | < 5.29 | 0.844 | 4.82 | – | – | 0.971 | < 6.00
11 | KP-4 (pancreas, adherent) | 0.751 | 2.90 | 0.472 | 7.27 | 0.901 | < 5.00 | 0.988 | < 4.99 | 0.987 | < 4.70 | 0.988 | < 5.29 | 0.373 | 6.25 | – | – | 0.982 | < 6.00
12 | KYSE-270 (oesophagus, adherent) | 0.454 | 3.72 | 0.17 | 8.10 | 0.942 | < 5.00 | 0.883 | 5.09 | 0.952 | < 4.70 | 0.945 | < 5.29 | 0.707 | 5.36 | – | – | 0.99 | < 6.00
13 | ML-1 (thyroid, adherent) | 0.26 | 4.35 | 0.465 | 7.30 | 0.95 | < 5.00 | 0.794 | 5.25 | 0.941 | < 4.70 | 0.97 | < 5.29 | 0.765 | 5.07 | – | – | 0.982 | < 6.00
14 | NCI-H1299 (large cell lung carcinoma, adherent) | 0.76 | 2.76 | 0.432 | 7.40 | 0.855 | < 5.00 | 0.752 | 5.39 | 0.919 | < 4.70 | 0.91 | < 5.29 | 0.829 | 4.78 | – | – | 0.98 | < 6.00
15 | NCI-H1573 (lung adenocarcinoma, adherent) | 0.891 | < 2.40 | 0.99 | < 5.99 | 0.932 | < 5.00 | 0.94 | < 4.99 | 0.987 | < 4.70 | 0.982 | < 5.29 | 0.892 | < 4.70 | – | – | 0.983 | < 6.00
16 | NCI-H1734 (lung adenocarcinoma, adherent) | 0.857 | 2.42 | 0.475 | 7.27 | 0.976 | < 5.00 | 0.916 | < 4.99 | 0.956 | < 4.70 | 0.983 | < 5.29 | 0.782 | 5.03 | 0.978 | < 5.00 | – | –
17 | NCI-H1793 (lung adenocarcinoma, adherent) | 0.701 | 2.93 | 0.824 | 6.01 | 0.912 | < 5.00 | 0.924 | < 4.99 | 0.97 | < 4.70 | 0.982 | < 5.29 | 0.546 | 5.75 | – | – | 0.979 | < 6.00
18 | NCI-H1963 (small cell lung carcinoma, suspension) | 0.518 | 3.56 | 0.803 | 6.36 | 0.853 | 5.20 | – | – | 0.99 | < 4.70 | 0.982 | < 5.29 | – | – | 0.991 | < 5.00 | – | –
19 | PCI-38 (head and neck, adherent) | 0.941 | < 2.40 | 0.827 | 6.20 | 0.845 | 5.14 | 0.939 | < 4.99 | 0.91 | < 4.70 | 0.937 | < 5.29 | 0.881 | < 4.70 | – | – | 0.985 | < 6.00
20 | PL18 (pancreas, adherent) | 0.733 | 2.94 | 0.43 | 7.38 | 0.901 | < 5.00 | 0.901 | < 4.99 | 0.973 | < 4.70 | 0.947 | < 5.29 | 0.814 | 4.97 | – | – | 0.982 | < 6.00
21 | RMG-I (ovary, adherent) | 0.653 | 3.15 | 0.76 | 6.38 | – | – | 0.826 | 5.12 | 0.89 | < 4.70 | 0.889 | < 5.29 | 0.275 | 6.60 | 0.983 | < 5.00 | 0.981 | < 6.00
22 | RT-112 (bladder, adherent) | 0.492 | 3.62 | 0.342 | 7.65 | 0.844 | 5.10 | 0.804 | 5.25 | 0.913 | < 4.70 | 0.956 | < 5.29 | 0.458 | 6.02 | – | – | 0.983 | < 6.00
23 | SW156 (kidney, adherent) | 0.764 | 2.79 | 0.77 | 6.36 | 0.947 | < 5.00 | 0.871 | < 4.99 | 0.932 | < 4.70 | 0.981 | < 5.29 | 0.772 | 5.07 | – | – | 0.975 | < 6.00
24 | SW837 (large intestine, adherent) | 0.659 | 3.10 | 0.572 | 6.97 | 0.957 | < 5.00 | 0.906 | < 4.99 | 0.965 | < 4.70 | 0.797 | 5.47 | 0.561 | 5.71 | – | – | 0.979 | < 6.00
25 | SW1088 (glioma, adherent) | 0.739 | 2.82 | 0.831 | 6.03 | 0.896 | < 5.00 | 0.831 | 5.03 | 0.933 | < 4.70 | 0.979 | < 5.29 | 0.839 | < 4.70 | – | – | 0.975 | < 6.00
26 | SW1463 (large intestine, adherent) | 0.678 | 2.95 | 0.856 | < 5.99 | 0.978 | < 5.00 | 0.978 | < 4.99 | 0.974 | < 4.70 | 0.911 | < 5.29 | 0.567 | 5.67 | – | – | 0.975 | < 6.00
27 | T-24 (bladder, adherent) | 0.791 | 2.77 | 0.736 | 6.54 | 0.842 | 5.18 | 0.905 | < 4.99 | 0.96 | < 4.70 | 0.951 | < 5.29 | 0.775 | 5.12 | – | – | 0.987 | < 6.00
28 | TGBC24TKB (biliary tract, adherent) | 0.685 | 3.10 | 0.882 | 6.02 | 0.928 | < 5.00 | 0.935 | < 4.99 | 0.978 | < 4.70 | 0.932 | < 5.29 | 0.82 | 4.98 | – | – | 0.984 | < 6.00
